{"source": "paper PMC12136788", "binders": {"B1": {"name": "129497756_129516252_352_5pUTR_ENSMUSG00000028788_ENSMUST00000030578|mouse|control|control (ssRNA)", "RNA": "GGGAGUUCUACAGUCCGACGAUCUAAAUGUGCAACGUAUAUUCCAACGAAAAACGCUGGCAAGCUGGGGACUGGGCAUUGAAGGCCGGCGGAGGCGGGAGCGAGGAGGCGCCUCUCUCCUCAGUCACCUCGGCGGCGGCGGCGCAACAGAGGAUUGAGCAUCA"}, "B2": {"name": "chrX:71549400:71549401:+_ENSMUSG00000019087_ENSMUST00000019231|mus_hu|mus_mus_mus_hu_False|68_98 (ssRNA)", "RNA": "GGGAGUUCUACAGUCCGACGAUCGCAGUAGGAAGAGCAAACCUUUCCAGUCCAGUGCGCUGCAGGGAGAAACAUGAACAACACGGACACCGUCCCACCCUCAACCCCCCCACUGGCACAGGGUCACACAAUCUGGGUCAAAGACAACAGAGGAUUGAGCAUCA"}, "B3": {"name": "chr3:121486967:121486968:-_ENSMUSG00000028127_ENSMUST00000029770|mus_mus|motif|central (ssRNA)", "RNA": "GGGAGUUCUACAGUCCGACGAUCUCCAAUUGCACUUGUUAACUUGAAAAUAUAUAAAACUAUGUCUAAAAAUGGCUUACGGAGAUUUGAAUACAGAUCGACUACACUGUUACAAAAUUUUUCUACAUCCUGUGUAAGCAGCUGCAACAGAGGAUUGAGCAUCA"}, "B4": {"name": "chrX:20248820:20248821:+_ENSMUSG00000001924_ENSMUST00000001989|mus_mus|mus_mus_mus_hu_True|48_108 (ssRNA)", "RNA": "GGGAGUUCUACAGUCCGACGAUCGGCAAAGUCAGUCACCACAAAGUCAGGUUCUGCCAGUGAGGCCACCAAGGAUUUAAAGCUAAUCUUUUUCGGUACUUUGACCUGACUGACGAUGCCUCCACGGAUGUAGUCGGAGAAGUUCAACAGAGGAUUGAGCAUCA"}, "B5": {"name": "chr16:94651144:94651145:+_ENSMUSG00000040785_ENSMUST00000117648|mus_hu|mus_mus_mus_hu_True|8_8 (ssRNA)", "RNA": "GGGAGUUCUACAGUCCGACGAUCAUUUUCUUGAAUCAAGUGGCGAAUAACAUAGUCCACUGCUUCAUUUAGAAAAUUUCUGCUAGAAAAACAGGUUGUAUAGUCUUCUGUGCUCAAAACUUUCCAAGAGAGCAGCUCUUUGAGCAACAGAGGAUUGAGCAUCA"}, "B6": {"name": "61873076_61873196_2987_3pUTR_ENSMUSG00000024580_ENSMUST00000062991|mouse|control|control (ssRNA)", "RNA": "GGGAGUUCUACAGUCCGACGAUCGAUCCCAGAGCCAAUCUGACGAAGGCCAAGAAUCAGGGCUGGUAGAACCAGCCACUGUAGGUAAUUAGCUAUACGAAUGUUAUUUGGGUCAUUUGCUGUUGGCGCUGCCUAAAAUUGCUUCAACAGAGGAUUGAGCAUCA"}, "B7": {"name": "chr1:180251892:180251893:+_ENSMUSG00000026500_ENSMUST00000027781|mus_hu|motif|central (ssRNA)", "RNA": "GGGAGUUCUACAGUCCGACGAUCUGAACCAUACAAUAUUGAAUGCCGGGCGCAGGGAGUAUUUUCAACAUCUAAAAAUCCGGGGAGCUUAAGGGACUUCCAAUAUGAUAAAUGUAACGACGUACAAGAUGCCUUCCUCUCCUCCAACAGAGGAUUGAGCAUCA"}, "B8": {"name": "46277305_46277425_453_CDS_ENSMUSG00000037697_ENSMUST00000051310|mouse|control|control (ssRNA)", "RNA": "GGGAGUUCUACAGUCCGACGAUCGGGGCCCCCUCCCGCCGCCCCGCCGCCCCCCGAGUUCUGGGCGACGAGCGGCGGCGGAGGCGAAGAAGAGCUGCCGCCGCCCGCGCUCUCGCCCUCGCUGUAGUAGCGCAACGACGAGCCCAACAGAGGAUUGAGCAUCA"}, "B9": {"name": "chr1:120316390:120316391:+_ENSMUSG00000064302_ENSMUST00000049404|mus_mus|FALSE|FALSE (ssRNA)", "RNA": "GGGAGUUCUACAGUCCGACGAUCCAACAGGGUCUGGUCGUGCUCAAGGUCAGCAGACUUCUGUCUGUCUGAGAAAUAGUCUAUGAGUUCCUGGCCAACCUGCAGCCGCUUUCCCACAUCCUUCUGCAGCACCUGGGCCAGACACAACAGAGGAUUGAGCAUCA"}, "B10": {"name": "chr1:171484892:171484893:+_ENSG00000117523_ENST00000367742|hu_hu|motif|central (ssRNA)", "RNA": "GGGAGUUCUACAGUCCGACGAUCUUUUUUUUCCUGAUCCCCAGCUGCCUGCAGGCUGGGAAAUUCUUGCUGAAACUGACGGUUCACUUGGAUUCCAUCUCCUUGCCCACCUUGCUUGUUACUGGCCCAUGAUUUGGGAGCAGGCAACAGAGGAUUGAGCAUCA"}, "B11": {"name": "chr19:27315782:27315783:+_ENSMUSG00000024924_ENSMUST00000167487|mus_hu|FALSE|FALSE (ssRNA)", "RNA": "GGGAGUUCUACAGUCCGACGAUCAGCCGCAUCAGUCCAGUAGAUGGUCUUGUACACCCAAUCAACAGCAAUGGCUGCAGGAUUAUAGACAUUGUCGAUCAUUUUAACAUGUCUACCAACCUUGUCAUCAAUUGAGGCACUGAACAACAGAGGAUUGAGCAUCA"}, "B12": {"name": "chr17:64801638:64801639:+_ENSG00000154229_ENST00000413366|hu_mus|hu_hu_hu_mus_False|68_98 (ssRNA)", "RNA": "GGGAGUUCUACAGUCCGACGAUCUAUAUAUAUAUAUAUAUACACACACAUAUAUAGUAAAACCCUAAUCUAUCACGUAAAGUAGCCAUUCAUUUUUAAAAUUACAUCUACAUUAAAAAAUUAAUAUAUCUGAUAGAGUGCCAGCAACAGAGGAUUGAGCAUCA"}, "B13": {"name": "145565605_145565725_3093_CDS_ENSMUSG00000045482_ENSMUST00000132925|mouse|control|control (ssRNA)", "RNA": "GGGAGUUCUACAGUCCGACGAUCUGUAGAAGACCUUGUGCUCCACCACAUUGAGAUCCAUCGUGAAGAGUCGAGGCUGCAGCGUGGUACAGAACGUAUUGCCCUCCAUCAGUCCGAUCUGGGCGUUGGCAGGCUGGUGUCGCACAACAGAGGAUUGAGCAUCA"}, "B14": {"name": "chrX:20248820:20248821:+_ENSMUSG00000001924_ENSMUST00000001989|mus_hu|FALSE|FALSE (ssRNA)", "RNA": "B4 RNA with A27G, A33C, U90C, C93A"}, "B15": {"name": "chr1:46159212:46159213:+_ENSG00000159596_ENST00000372025|hu_mus|hu_hu_hu_mus_True|18_38 (ssRNA)", "RNA": "GGGAGUUCUACAGUCCGACGAUCUCUGAUCCCUCCCAAGAAAGCUAGGAAACCGGCUCCAUAAGCCAUCUGAGUGAAAGCUAGGACGGGGAUAUAAGUUUUUGUCAUUACCAUGAGCAGUGGUGGAGCAGUAAAGGGGAUUAACAACAGAGGAUUGAGCAUCA"}, "B16": {"name": "chr17:65740002:65740003:+_ENSG00000130935_ENST00000581375|hu_hu|hu_hu_hu_mus_False|18_38 (ssRNA)", "RNA": "GGGAGUUCUACAGUCCGACGAUCAACAAAUCUUUCUUCCCUGGACGAACAGGAAGAUUCAUAUUAAAAAAAAUAUAUAUCCAUCAAGUUAGGUGUGUAAUAUCAGACUUUACUCCCCACUUCAAUUGAGGUGGAUCUCUGAGUCAACAGAGGAUUGAGCAUCA"}, "B17": {"name": "chr11:23509083:23509084:-_ENSMUSG00000042208_ENSMUST00000043356|mus_hu|FALSE|FALSE (ssRNA)", "RNA": "GGGAGUUCUACAGUCCGACGAUCUGUUCCCCACAAUCGCCAGUAUACAUCUCUCCAAGAUUUUAAUUCUUCGAAAAGACUAUUCAAAUACUCAUGAACAUCCCAUGUCUUAUCUCUUAUGUGAAUAUAGACAAUAUUUCCACGCAACAGAGGAUUGAGCAUCA"}, "B18": {"name": "chr11:64571133:64571134:-_ENSG00000133895_ENST00000312049|hu_mus|FALSE|FALSE (ssRNA)", "RNA": "GGGAGUUCUACAGUCCGACGAUCCUUUCUUGGAACUGAAAAAUAAAUCUAUGUACAAAACAGGAAGAGGCUGGCCCUCCCCCACCCCGUGCAGAUUUCCUCCUGGGACCUCAGGGAGGUUCCCAGAGGGCUGGAAGAGGUCCUCAACAGAGGAUUGAGCAUCA"}, "B19": {"name": "chr19:30113593:30113594:+_ENSMUSG00000024817_ENSMUST00000025739|mus_hu|motif|central (ssRNA)", "RNA": "GGGAGUUCUACAGUCCGACGAUCGGGUUUAGCCUCAAUCUGUGUAGAUGUGCCAGGAAGAUGAUCAGGGUCUGGGCGAACGGGCAGCUGAAUUAUAUCAUUCAGUCCAACAUCAUAAUCAAAUAAGGUAUAUCCAUUUUCCAACAACAGAGGAUUGAGCAUCA"}, "B20": {"name": "38089721_38089841_695_3pUTR_ENSMUSG00000022812_ENSMUST00000023507|mouse|control|control (ssRNA)", "RNA": "GGGAGUUCUACAGUCCGACGAUCGUCCCUCGGGGUCCCCUCCCCCGUCCGUGGCCCCGGCACGGCCGGCCUCCGCCCCUCGCCUUUGCUCAGCGGCUGCUCGGGAAGUGUCCGCGCUGUGCCCGGAGCCCGAAGCCCUGUCAGCAACAGAGGAUUGAGCAUCA"}, "B21": {"name": "chr7:116084223:116084224:+_ENSMUSG00000031029_ENSMUST00000033342|mus_hu|FALSE|FALSE (ssRNA)", "RNA": "GGGAGUUCUACAGUCCGACGAUCUGAUGCCCCUCCUACUUGCUGCAAGUCACUUGAGAGUCCAAUCACUCUGUUGGGGCUAAAGCAGGUCUUCAUGAUCAGGUCAACUCCGAUGCGUUCAGUGUCGUAGUACGCGUAUUUCACCAACAGAGGAUUGAGCAUCA"}, "B22": {"name": "chr1:220276048:220276049:+_ENSG00000067704_ENST00000302637|hu_hu|hu_hu_hu_mus_True|58_58 (ssRNA)", "RNA": "GGGAGUUCUACAGUCCGACGAUCGCAAAUUGCCUGGUUGGCGGGAAUUGUCCAAGGCUGGGUGGUCCAAACUAAAAUACUAACAGGGGAUGAGGCAUCUGUAAGAGACUCCAACUUCGGAGGAGGUCUCAGGAGGGGGAAUCUCAACAGAGGAUUGAGCAUCA"}}, "note": "Residue numbers refer to the chain shown, from its start. The list shows a part of the results."}
{"target": "T1, UNK ZnF1-3 (human, UniProt Q9C0B0 31-174)", "T1 sequence": "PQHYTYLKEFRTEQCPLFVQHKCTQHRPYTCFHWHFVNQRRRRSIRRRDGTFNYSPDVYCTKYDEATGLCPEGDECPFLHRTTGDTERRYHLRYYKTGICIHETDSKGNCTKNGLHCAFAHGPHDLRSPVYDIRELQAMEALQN", "test": "nsRBNS (natural sequence RNA bind-n-seq); RBNS binding buffer (assumed for nsRBNS): 25 mM Tris pH 7.5, 150 mM KCl, 3 mM MgCl2, 0.01% Triton X-100, 500 ug/ml BSA, 20 U/ml SUPERase-In, 4 C; UNK is unkempt and MSI1 is Musashi-1; names of the RNAs are library labels; protein concentration not given here; high values mean tight binding", "units": {"binding signal": "enrichment R"}}
{"binder": "B1", "binding signal": 1.99}
{"binder": "B2", "binding signal": 2.26}
{"binder": "B3", "binding signal": 1.61}
{"binder": "B4", "binding signal": 0.897}
{"binder": "B5", "binding signal": 0.752}
{"binder": "B6", "binding signal": 0.978}
{"binder": "B7", "binding signal": 1.53}
{"binder": "B8", "binding signal": 0}
{"binder": "B9", "binding signal": 1.16}
{"binder": "B10", "binding signal": 0.667}
{"binder": "B11", "binding signal": 0.414}
{"binder": "B12", "binding signal": 1.83}
{"binder": "B13", "binding signal": 0.984}
{"binder": "B14", "binding signal": 1.01}
{"binder": "B15", "binding signal": 1.63}
{"binder": "B16", "binding signal": 0.875}
{"binder": "B17", "binding signal": 1.09}
{"binder": "B18", "binding signal": 1.03}
{"binder": "B19", "binding signal": 1.27}
{"binder": "B20", "binding signal": 1.75}
{"binder": "B21", "binding signal": 0.602}
{"binder": "B22", "binding signal": 2.07}
